{
  "source": "PubChem BioAssay AID485313",
  "about": "(National Center for Advancing Translational Sciences (NCATS), 2010)",
  "note": "Among all 320,000 compounds or so, about 7,600 (2.4%) were called active. Inconclusive results, whose numbers are uncertain, are shown with a selection of clear calls. Calls follow the shape of the dose curve; as a rule, active = well fitted activation curve with a large enough effect; inconclusive = small, poorly fitted or top-dose-only effect; inactive = no such curve, though single readings can be large or run the other way. Potencies of inconclusive entries are left out as doubtful fits. Potency is read from the fitted curve at half-maximal effect; tags tell the direction and shape of the fitted curve.",
  "data": [
    {"experiment": "qHTS Assay for NPC1 Promoter Activators; also: nearly all actives have a fitted effect of over 60% in size;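 as to activation: reporter is driven by a mutant NPC1 promoter; % of control where 0% means no effect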", "conditions": "Huh7 NPC1 promoter luciferase reporter, 24 h; series mostly up to 9.22 µM; activation: at the top concentration", "outline": "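Huh7 cells stably carrying NPC1 promoter–luciferase, plated in Opti-MEM with 10% FBS for 2 h, were exposed to compound in DMSO for 24 h at 37 °C; luciferase reagent was added for 10 min and luminescence read.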", "values": [
      {"smiles": "Cn1c(SCC(=O)c2ccc(O)c(O)c2)nnc1-c1cccs1", "activation": "inactive: 0.311%"},
      {"smiles": "COc1ccc(Cn2c(C3CC3)nc3ccc(NC(=O)c4ccco4)cc3c2=O)cc1", "Potency": "active: 3160 nM"},
      {"smiles": "CCCn1cnc2cc(NCc3ccc(Br)cc3)ccc21", "Potency": "inconclusive [activator, single point]"},
      {"smiles": "NC1=NC2(CCCCC2)N(c2ccc(F)cc2)C(N)=N1", "Potency": "inconclusive [activator, single point]"},
      {"smiles": "Cc1nc(NC(=O)c2cc3c(s2)CCCCC3)sc1C(=O)N(C)C", "Potency": "inconclusive [activator, partial curve]"},
      {"smiles": "Cc1cc2nc(-c3ccc(NC(=O)c4cccnc4)cc3)oc2cc1C", "Potency": "inconclusive [activator, partial curve]"},
      {"smiles": "CCc1ccc2nc(N(CCN(C)C)C(=O)c3ccc4ncsc4c3)sc2c1", "Potency": "active: 2820 nM"},
      {"smiles": "O=C(CC(=O)c1ccccc1)Nc1cccnc1Cl", "Potency": "inconclusive [activator, single point]"},
      {"smiles": "COc1cccc(-n2nc(C(=O)N3CC(C)CC(C)C3)c3ccccc3c2=O)c1", "note": "(stereo not given)", "activation": "inactive: -4.04%"},
      {"smiles": "Cc1ccc(OCCCN2CCOCC2)c([N+](=O)[O-])c1", "Potency": "inconclusive [activator, partial curve]"},
      {"smiles": "COc1cc(/C=C2/C(=N)N3C(SC)=NSC3=NC2=O)ccc1OC(=O)c1ccco1", "Potency": "inconclusive [activator, single point]"},
      {"smiles": "O=C(COC(=O)Cn1cnc2ccccc21)Nc1cc2c(cc1Cl)C(=O)c1ccccc1C2=O", "Potency": "active: 3160 nM"},
      {"smiles": "COC(=O)c1cc(-c2ccc(OC)cc2)n[nH]1", "Potency": "inconclusive [activator, partial curve]"},
      {"smiles": "CCOc1ccc(-c2csc3nc[nH]c(=O)c23)cc1", "Potency": "inconclusive [activator, single point]"},
      {"smiles": "COc1cccc(-c2ncc3ccccc3c2COC(=O)c2ccco2)c1", "activation": "inactive: -1.35%"},
      {"smiles": "COc1ccc(/C=C/C(=O)c2ccc[nH]2)cc1OC", "Potency": "inconclusive [activator, single point]"},
      {"smiles": "C/C(=N\\NC(=O)c1cccs1)c1ccc2ccccc2c1", "Potency": "inconclusive [activator, partial curve]"},
      {"smiles": "Cc1ccc(NC(=O)c2cccc(S(=O)(=O)N(C)C3CCCCC3)c2)nc1", "activation": "inactive: 0.939%"},
      {"smiles": "COc1ccc(NC(=S)N2CCC(c3ccccc3)C2)cc1", "note": "(stereo not given)", "Potency": "active: 2510 nM"},
      {"smiles": "Cc1nn(-c2ccccc2)c(C)c1C(=O)NCCc1ccccc1", "Potency": "inconclusive [activator, partial curve]"},
      {"smiles": "Cc1ccc(O)c(-c2cc3ccccc3[nH]2)c1", "activation": "inactive: 20.9%"},
      {"smiles": "COc1ccccc1NC(=O)CSc1nnc(-c2ccc(C)cc2)o1", "Potency": "active: 1580 nM"},
      {"smiles": "CC(Sc1ccc(S(=O)(=O)N2CCCCCC2)cn1)C(N)=O", "note": "(stereo not given)", "activation": "inactive: -9.82%"},
      {"smiles": "CCCCN(C(=O)C1CCCC1)C1CCS(=O)(=O)C1", "note": "(stereo not given)", "activation": "inactive: -2.79%"},
      {"smiles": "COc1ccc(Cl)cc1C(=O)Nc1nc2ccccc2[nH]1", "Potency": "inconclusive [activator, full curve]"},
      {"smiles": "Cn1c(/C=C(\\C#N)C(N)=S)ccc1-c1ccc(Br)cc1", "Potency": "inconclusive [activator, partial curve]"},
      {"smiles": "Cc1ccc(-n2nnc(-c3nccs3)n2)cc1", "Potency": "inconclusive [activator, full curve, poor fit]"},
      {"smiles": "CCCc1cc(C(=O)NCCc2ccccc2)no1", "Potency": "active: 2240 nM"},
      {"smiles": "COc1ccc(NC(=S)Nc2ncccc2C)c(OC)c1", "Potency": "inconclusive [activator, single point]"},
      {"smiles": "COc1cc2c(cc1NC(=O)c1cccnc1)oc1ccccc12", "Potency": "inconclusive [activator, partial curve]"},
      {"smiles": "O=C(COc1cccc2c1CCN(Cc1ccc(Br)cc1)C2=O)N1CCOCC1", "activation": "inactive: -4.16%"},
      {"smiles": "COC(=O)c1cccc(NC(=O)CC2C(=O)NCCN2C(=O)Nc2cc(C)cc(C)c2)c1", "note": "(stereo not given)", "activation": "inactive: 0.173%"},
      {"smiles": "CN(C)c1ccc(C2C3CCCc4ccccc4C3=NN2C)cc1", "note": "(stereo not given)", "Potency": "inconclusive [activator, partial curve]"},
      {"smiles": "CCNS(=O)(=O)c1ccc(NC(=O)Nc2ccc3c(c2)OCO3)cc1", "activation": "inactive: 13.5%"},
      {"smiles": "CN(C)c1ccc(/C=C/C(=O)c2ccccc2)cc1[N+](=O)[O-]", "Potency": "active: 3550 nM"},
      {"smiles": "Cc1ccc(C(=O)CSc2nnnn2C(C)C)c(C)c1", "Potency": "active: 2820 nM"},
      {"smiles": "CCOC(=O)c1sc(=NC(=O)c2cccc(Br)c2)n(C)c1C", "Potency": "inconclusive [activator, single point]"},
      {"smiles": "O=C(Cn1nnc(-c2cccs2)n1)N1CCOCC1", "activation": "inactive: -2.51%"},
      {"smiles": "Cc1ccc(NC2Nc3cc(C)nn3S2)c(C)c1", "note": "(stereo not given)", "Potency": "inconclusive [activator, partial curve]"},
      {"smiles": "COc1ccc(CN2CCNC(=O)C2CC(=O)NCCc2nc(C)c3c(n2)CCC3)cc1C", "note": "(stereo not given)", "activation": "inactive: 1.52%"},
      {"smiles": "Cc1[nH]c2ccccc2c1/C=C(\\C#N)C(=O)NC1CC1", "Potency": "inconclusive [activator, single point]"},
      {"smiles": "C=CCc1cccc2cc(C(=O)Nc3ccccc3C(=O)O)c(=O)oc12", "activation": "inactive: -8.74%"},
      {"smiles": "CC(C)CC(=O)Nc1nnc(-c2ccco2)s1", "Potency": "inconclusive [activator, partial curve]"},
      {"smiles": "Cc1cc(C)nc(SCC(=O)N/N=C/c2ccc3c(c2)OCO3)n1", "Potency": "inconclusive [activator, partial curve]"},
      {"smiles": "CC(C)(C)c1nc(-c2ccccc2)nc2c1OCCC2", "activation": "inactive: -2.1%"},
      {"smiles": "CCn1c(O)c(/C=N/n2cnnc2)sc1=S", "Potency": "inconclusive [activator, single point]"},
      {"smiles": "Cc1nc2c(-c3ccc(F)cc3)c(C)nn2c(N2CCOCC2)c1C", "activation": "inactive: 0.725%"},
      {"smiles": "CC(=O)O[C@@H]1C[C@H]2C(C)(C)C(=O)C=C[C@]2(C)[C@H]2CC[C@@]3(C)[C@H](c4ccoc4)OC(=O)[C@H]4O[C@]43[C@@]21C", "activation": "inactive: -0.522%"},
      {"smiles": "CCOC(=O)c1ccc(NCc2ccc(N(C)C)cc2)cc1", "Potency": "inconclusive [activator, partial curve]"},
      {"smiles": "O=C(NCc1ccco1)c1ccc2ccccc2c1", "Potency": "inconclusive [activator, single point]"}
    ]}
  ]
}
